# According to the supplement of paper PMC11417369:
# ± gives the standard deviation of the averaged measurements. This is one part of the list.
# System: PfAP2-LT AP2 domain (GST-tagged)
# Experiment: gcPBM binding intensity (ln(normalized median fluorescence intensity)); higher = stronger DNA binding
# In short: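 Binding intensity is defined as the maximum Masliner-normalised natural-log median intensity across replicate spots for either probe orientation. It was measured on an Agilent 4 × 180k array of primer-extended double-stranded 36-bp intergenic genomic probes and negative controls, to which GST-tagged P. falciparum DNA-binding domains made in E. coli were applied for 1 h in 1× PBS with 1% milk, 0.2 mg/ml BSA, 0.5% salmon testes DNA and 0.03% Triton X-100. Detection was by Alexa488 anti-GST antibody and scanning at 488 nm.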
row,Sequence,gcPBM binding intensity (ln)
1,CTCAAAAAATATGAACGTACAAAATAAGTAATGACA [XGTACX_site590],8.96 ± 0.46
2,TTTTTTTTTTTTTTTGCACACATTTTAATTATTTTT [CACACA_site341],9.08 ± 0.44
3,AACTCATAGGAGTGTGCACACAAAAAATTAAAAAAA [CACACA_site8996],9.53 ± 0.67
4,ATACATATTAATATGTGTACACATTTTTATTTTTTT [XGTACX_site930],8.99 ± 0.46
5,AAAAAAAAAAAAAAAGGTACACAAAACGGTATTATT [XGTACX_site7064],8.94 ± 0.38
6,TTTTTTTTTTTTGTCACACATATGGAATATATCTAT [CACACA_site5899],8.74 ± 0.47
7,TTATAACTTTTCACAAGTACATATATATATGTATAA [XGTACX_site2306],8.56 ± 0.3
8,ATATATATGTTTTTATGTACATATTTTTCTCCTTCA [XGTACX_site5899],8.94 ± 0.44
9,AATAAATTCATGAATTGTACGTAATGATAACATGAA [XGTACX_site2591],9.04 ± 0.39
10,TTTTTATTCCAGTATTCACACACGAATAACCACATA [CACACA_site1897],9.05 ± 0.46
11,ATTTTCTTTTTTAAACGTACACATATTAAATATATA [XGTACX_site7773],8.62 ± 0.49
12,AGATGAGAGATATATACACACAATAATACCTATTTA [CACACA_site6542],9.12 ± 0.56
13,TTTAAAAAGTTATGAAGTACATATATATATATATAT [XGTACX_site2188],9.42 ± 0.23
14,ATATTATTTATAAAAGTGCAAAAATCACTTCTTTTA [GTGCAC_site9656],8.34 ± 0.54
15,AAAAAAAGGAAATTTACACACACATATAATATACAT [CACACA_site3297],9.45 ± 0.27
16,ATTTCCTTGAATGTTGCATGCTGTATTTTAATTAAA [TGCATGCA_site280],8.9 ± 0.4
17,TAGATTATTATACTAGTGCAAATTATTTAAGAAAAA,8.47 ± 0.52
18,TAAATTTTTCTAAGTGCATGTTAATTTTTCAATTTA [TGCATGCA_site906],8.39 ± 0.45
19,AAAAAAAAAAAGTGCACACATAAAAATATGATCTAA [CACACA_site572],9.07 ± 0.47
20,AAAAAAAGGTAAAATTGTACATACGCACAAAAATAT [XGTACX_site2887],9 ± 0.51
21,TGCACGCACAGACACACACACAACTAAAAAATAATG [CACACA_site7250],9.54 ± 0.49
22,AATATATCAAAAATGATGACATAAATATATTAATTT [GTGCAC_negctrl_site530],8.72 ± 0.41
23,TAATATCGTATATGAGTGCAATATTTTAGATTTTGA,8.51 ± 0.42

row,Sequence,gcPBM binding intensity (ln)
1,TTTTTTTTTTTTGTCACACACCTTCATAAGAAAAAA [CACACA_site4779],8.53 ± 0.38
2,ATGAAAAAACATAATTGTACAAAAGTTGGATTCGAT [XGTACX_site7732],9.39 ± 0.5
3,TAAATCCGCAGGCACACACACATATTAAGAAAAAAA [CACACA_site6061],9.42 ± 0.51
4,GTACAGATATTGTACATACACACCTATATAAATATC [CACACA_site5739],9.17 ± 0.3
5,ATCATCACATAAGAAAATAGATAAAAAAAAAAAAAT [XGTACX_negctrl_site589],8.74 ± 0.59
6,ATTAAATGATTCATATGTACATAAATAAATAAATAT [XGTACX_site2249],8.86 ± 0.35
7,TATTAATATTTACACACATGCGCACACATAAATAAA [TGCATGCA_site609],9.48 ± 0.29
8,TTTCTTTTTAAAGTGTATTAAAATTGAATAAAAAGA [XGTACX_negctrl_site408],8.05 ± 0.42
9,AAAGAGAAACAAAATTGTACATTATATTGTAGACGT [XGTACX_site976],9.03 ± 0.35
10,TATATTTATAAGTGTACACATTATATAAATCCCTAT [CACACA_site6122],8.65 ± 0.42
11,TGGGAACAATATATTTGTACTTAAATAAATAAAAAA [XGTACX_site6762],8.43 ± 0.64
12,GAACAAAATGATAGAAGTACAAATATTTATTTTGTT [XGTACX_site7146],8.8 ± 0.58
13,TAAGAAAAATATATATGTACACATATATATATATAT [XGTACX_site8542],9.49 ± 0.028
14,TGTATGTTATATACAACACACAAAAAAAAACAAGTT [CACACA_site301],9.12 ± 0.51
15,AACTTTTATACGGATACACACAAAAAAAAATAAAAA [CACACA_site6547],8.89 ± 0.51
16,TACAATATTTCGAGCTTGCACTTTTATTAAGTAAAT,8.54 ± 0.38
17,TATCTGTATTTGTATACACACAAATGTATTTATTTA [CACACA_site4830],8.94 ± 0.44
18,TATACAGACAGACACACACACATATATAAATATGTA [CACACA_site6912],9.76 ± 0.37
19,ATTATTATTTTTAACTGTACATAGATATAGATATCC [XGTACX_site8714],8.62 ± 0.45
20,TACATATATCTATGTGTGCACTTATTTCCGGACAAA,9.23 ± 0.4
21,TAATTAGCATAATACACATGCATACATTTATATATA [TGCATGCA_site542],8.69 ± 0.42
22,AGTCTTTTACATTGCACACACATTTCTTTCCTTTTG [CACACA_site2988],9.61 ± 0.36
23,AAAAAAAAAAAACATACACACAAGAACAAAATATGA [CACACA_site3002],9.19 ± 0.41

row,Sequence,gcPBM binding intensity (ln)
1,ATGTGTATACTAAGAACACACAAGTTACTTGGTGTT [CACACA_site6864],9.07 ± 0.33
2,TATTTAAAAGATGAAAGTACACATTTAATTACATTT [XGTACX_site3781],8.46 ± 0.35
3,TATATTTAACATACTTTTTTTTTTTTTTTTTTTTTT [CACACA_negctrl_site938],8.6 ± 0.3
4,ATATATATATATATATGTACTTAATATTTCTTATTT [XGTACX_site6206],9.55 ± 0.099
5,ATTTTTAATATTATTACACACACTAATAAAAAAAAA [CACACA_site8265],8.73 ± 0.35
6,TTTTTTTTAATTGTGATACGTATATTATTTTTTGAT [TGCATGCA_negctrl_site318],8.68 ± 0.49
7,ATATGTAAAGAAAAGTAAACACTAATTTTAAACAAT [CACACA_negctrl_site11],8.91 ± 0.54
8,TATATATATGTGCAGTGTACTTTTTTTTTCTGTAAG [XGTACX_site3424],8.71 ± 0.45
9,GAGAAGACATTACACAGTACCCAGGAAATCTACGGA [XGTACX_site1993],8.98 ± 0.48
10,TATAAAGGTGAAATTTGTACATAGTCATTTTTTAAT [XGTACX_site4811],8.52 ± 0.42
11,TCGACAAATGTATATACACACATTTGTAACATAAAT [CACACA_site560],9.18 ± 0.24
12,TTCTTTTTTAAACACACACACACAAGAAAATATATA [CACACA_site5680],9.66 ± 0.35
13,TGACGAAAAAAAAGGGTGCTTAGTATAACTTTAAAG,8.52 ± 0.47
14,TGATTAAAAGAGGGAAAAAAAAAAAAAAAAAAAAAA [CACACA_negctrl_site896],8.31 ± 0.38
15,ATTTTTTTTTTAAAATGTACATGAGAAATTGTATAT [XGTACX_site425],8.47 ± 0.42
16,TTTCTTATATAAGTGTACTAAAATATATATATGCAA [GTGCAC_negctrl_site546],8.38 ± 0.44
17,TAAAAAAATAAATATACACACATATATAAATATGTA [CACACA_site6641],8.77 ± 0.36
18,TATATTATTAATTAAGCACACATTATTTTTATAATA [CACACA_site3982],8.51 ± 0.43
19,TAACATAATATAGACACACACATGTACATATGCCAA [CACACA_site1842],9.49 ± 0.41
20,CAAAGATATATAAACACACAAATATAACATATATAC [CACACA_site7395],9.18 ± 0.42
21,TATGAATATCTATACACACACATATATATACTCACT [CACACA_site1597],9.39 ± 0.36
22,TATATTATTATATATTGTACTTTTTATATTTGCATT [XGTACX_site2978],8.88 ± 0.53
23,TACACTTGTAATTGCGTGCACGAAGGATATATATAT,9.13 ± 0.32

row,Sequence,gcPBM binding intensity (ln)
1,TATGTATATTTTTTTGTGCACATATATATATATATA,9.4 ± 0.2
2,ATATAATTATATAAATGTACTCATTCGTTATTTTGC [XGTACX_site6132],8.76 ± 0.42
3,AAATATAATAATAATTTAAGAATCTAATATTTTATA [CACACA_negctrl_site831],8.1 ± 0.49
4,TACTATATCGATACCAGTACAGATTTATAAATAATA [XGTACX_site7491],8.63 ± 0.45
5,TTATAAAAAAAAATAACACACAGACATAAGAATAAA [CACACA_site9383],9.1 ± 0.42
6,TATATTAAGTATAAGACACACATATAGTAATAGAAA [CACACA_site5176],9.04 ± 0.36
7,GGTATACATATTAAATGTACATATTTTAACAATAAG [XGTACX_site4868],8.74 ± 0.46
8,ATATAACTTTTCTTAACACACAAAAAACAAAAATAA [CACACA_site2380],8.68 ± 0.49
9,AAGTGTCAAAGTTACACACACAAACTTGTCATTTTT [CACACA_site837],9.38 ± 0.33
10,TTACACAAACAAATTATGGACACATAAGTAAAAGGA [CACACA_negctrl_site1622],8.94 ± 0.43
11,TTATCCATAAAAAAGTGTACGCACTAAAATTGAAAA [XGTACX_site5460],8.54 ± 0.46
12,GAAAAAAGAAAAAAAAGTACATATATTTAATAAGAC [XGTACX_site6912],8.82 ± 0.57
13,TATAATTCATATGAAACACACATTTATTTTAATTAC [CACACA_site3686],8.71 ± 0.4
14,TAGGCGTTTAATAAAAGTACCCACACATATATTATT [XGTACX_site1932],8.88 ± 0.4
15,TTTATTATCGTTCTCATACACACAAAATATACATAC [CACACA_site2642],9.06 ± 0.41
16,AAATATATATGTGGGGGTACTAATAAAAAAACCCCT [XGTACX_site2657],8.84 ± 0.42
17,ATTTAACAACTTCAAACACACAATATATATATATAT [CACACA_site2093],9.07 ± 0.46
18,AATTCAAATATAAATACACACACATAGCTACAAAAT [CACACA_site9386],9.48 ± 0.27
19,CATAAATTAATAGTCACACACGTATTTTTTATATAT [CACACA_site2526],8.96 ± 0.37
20,AAAAAAAAAAAAAGGTGTACATGCAAAATAAATTCT [XGTACX_site4592],9.03 ± 0.42
21,AAATAAATAAGAAACGCATGCATATATAATATATAA [TGCATGCA_site326],9.22 ± 0.34
